# Reference: the supplement of paper PMC12645437, “Orthogonal IMiD-Degron Pairs Induce Selective Protein Degradation in Cells” (ACS Chemical Biology, 2025)
# The other results are listed elsewhere or left out.
# B1: Q9UKT9 (peptide)
# chain: FCCPVCGADFTQKGNLLRHIKL
# B2: Q9UKT9 (peptide)
# chain: FKCPVCGAVFTQKGNLLRHIKL
# B3: Q9UKT9 (peptide)
# chain: FWCPICGRGFTQKGNLLRHIKL
# B4: Q9UKT9 (peptide)
# chain: FICPQCGALFTQKGNLLRHIKL
# B5: Q9UKT9 (peptide)
# chain: FDCEICGHIFTQKGNLLRHIKL
# B6: Q9UKT9 (peptide)
# chain: FHCPICGHQFTQKGNLLRHIKL
# B7: Q9UKT9 (peptide)
# chain: FMCNQCGRYFTQKGNLLRHIKL
# B8: Q9UKT9 (peptide)
# chain: FWCNICGAQFTQKGNLLRHIKL
# B9: Q9UKT9 (peptide)
# chain: FECPICGHTFTQKGNLLRHIKL
# B10: Q9UKT9 (peptide)
# chain: FLCNICGARFTQKGNLLRHIKL
# B11: Q9UKT9 (peptide)
# chain: FACEVCGARFTQKGNLLRHIKL
# B12: Q9UKT9 (peptide)
# chain: LLCNQCGFECTQKGNLLRHIKL
# B13: Q9UKT9 (peptide)
# chain: FKCNVCGAIFTQKGNLLRHIKL
# B14: Q9UKT9 (peptide)
# chain: FICNQCGACFTQKGNLLRHIKL
# B15: Q9UKT9 (peptide)
# chain: FACNQCGHFFTQKGNLLRHIKL
# B16: Q9UKT9 (peptide)
# chain: LLCPICGFKCTQKGNLLRHIKL
# B17: Q9UKT9 (peptide)
# chain: FSCDICGAEFTQKGNLLRHIKL
# B18: Q9UKT9 (peptide)
# chain: FDCDVCGATFTQKGNLLRHIKL
# B19: Q9UKT9 (peptide)
# chain: FVCEICGALFTQKGNLLRHIKL
# B20: Q9UKT9 (peptide)
# chain: FFCEICGANFTQKGNLLRHIKL
# B21: Q9UKT9 (peptide)
# chain: FMCEVCGAEFTQKGNLLRHIKL
# B22: Q9UKT9 (peptide)
# chain: FMCNVCGADFTQKGNLLRHIKL
# B23: Q9UKT9 (peptide)
# chain: FLCEQCGANFTQKGNLLRHIKL
# B24: Q9UKT9 (peptide)
# chain: FWCPVCGALFTQKGNLLRHIKL
# B25: Q9UKT9 (peptide)
# chain: FDCPQCGAAFTQKGNLLRHIKL
# B26: Q9UKT9 (peptide)
# chain: FDCNQCGRKFTQKGNLLRHIKL
# B27: Q9UKT9 (peptide)
# chain: FECDQCGAVFTQKGNLLRHIKL
# B28: Q9UKT9 (peptide)
# chain: FKCDQCGAFFTQKGNLLRHIKL
# B29: Q9UKT9 (peptide)
# chain: FLCDICGARFTQKGNLLRHIKL
# B30: Q9UKT9 (peptide)
# chain: FQCNVCGAGFTQKGNLLRHIKL
# B31: Q9UKT9 (peptide)
# chain: LDCPICGFNCTQKGNLLRHIKL
# B32: Q9UKT9 (peptide)
# chain: FECEICGRKFTQKGNLLRHIKL
# B33: Q9UKT9 (peptide)
# chain: FTCNICGAWFTQKGNLLRHIKL
# B34: Q9UKT9 (peptide)
# chain: FWCNVCGAVFTQKGNLLRHIKL
# B35: Q9UKT9 (peptide)
# chain: FSCNICGAMFTQKGNLLRHIKL
# B36: Q9UKT9 (peptide)
# chain: FYCNICGAGFTQKGNLLRHIKL
# B37: Q9UKT9 (peptide)
# chain: FHCPICGHSFTQKGNLLRHIKL
# B38: Q9UKT9 (peptide)
# chain: FHCPQCGAQFTQKGNLLRHIKL
# B39: Q9UKT9 (peptide)
# chain: FACEICGANFTQKGNLLRHIKL
# B40: Q9UKT9 (peptide)
# chain: FMCEICGAQFTQKGNLLRHIKL
# B41: Q9UKT9 (peptide)
# chain: FTCPICGRKFTQKGNLLRHIKL
# B42: Q9UKT9 (peptide)
# chain: FYCNICGAQFTQKGNLLRHIKL
# B43: Q9UKT9 (peptide)
# chain: LMCPICGFLCTQKGNLLRHIKL
# B44: Q9UKT9 (peptide)
# chain: FCCEICGASFTQKGNLLRHIKL
# B45: Q9UKT9 (peptide)
# chain: LECPICGFDCTQKGNLLRHIKL
# B46: Q9UKT9 (peptide)
# chain: FACPQCGAEFTQKGNLLRHIKL
# B47: Q9UKT9 (peptide)
# chain: FECNICGAEFTQKGNLLRHIKL
# B48: Q9UKT9 (peptide)
# chain: LNCNQCGFACTQKGNLLRHIKL
# B49: Q9UKT9 (peptide)
# chain: FGCPICGRHFTQKGNLLRHIKL
# B50: Q9UKT9 (peptide)
# chain: FLCNVCGAMFTQKGNLLRHIKL
# Target: no compound (DMSO)
# Experiment: log2 fold change of degron read counts, EGFP-low vs EGFP+ sorted cells; higher = lower degron-EGFP level without compound (poor expression or instability)
# Settings: compound: DMSO control; 18 h
# 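Note: jurkat cells carrying a lentiviral library of mutant zinc finger degrons fused to EGFP plus mCherry, mCherry+ cells FACS sorted, degron abundance counted by next-generation sequencing.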
row,Sequence,log2 fold change of degron read counts
1,B1,-1.26
2,B2,-0.0326
3,B3,-1.11
4,B4,0.618
5,B5,0.701
6,B6,-0.469
7,B7,0.441
8,B8,-0.163
9,B9,-0.943
10,B10,-0.809
11,B11,-1.18
12,B12,0.152
13,B13,0.272
14,B14,-0.701
15,B15,0.872
16,B16,0.587
17,B17,-2.45
18,B18,-1.89
19,B19,-1.13
20,B20,-0.83
21,B21,-1.72
22,B22,-1.36
23,B23,-1.58
24,B24,1.33
25,B25,-1.43

row,Sequence,log2 fold change of degron read counts
1,B26,0.0364
2,B27,-2.91
3,B28,-0.556
4,B29,-1.63
5,B30,-1.35
6,B31,0.803
7,B32,-1.84
8,B33,0.544
9,B34,0.987
10,B35,-0.197
11,B36,-0.138
12,B37,-1.5
13,B38,-1.85
14,B39,-1.65
15,B40,-1.95
16,B41,-0.401
17,B42,-0.421
18,B43,1.66
19,B44,-1.45
20,B45,-0.246
21,B46,-2.46
22,B47,-2.41
23,B48,1.1
24,B49,-0.593
25,B50,-0.298
